# Data published in PubChem BioAssay AID651820 (National Center for Advancing Translational Sciences (NCATS), 2012).
# Several values for one entry are separate records, joined by “and”; a condition that tells them apart may be missing. Equal values may be shown once. Out of some 340,000 compounds screened, about 12,000 (3.5%) were called active. The inconclusive results got no clear call from the source; some entries with a clear call stand among them for comparison. The call rests on the fitted dose curve; in most records, active means well fitted inhibition curve with a large enough effect; inconclusive means small, poorly fitted or top-dose-only effect, or another doubt; inactive means no such curve, though single readings can be large or run the other way. Where the call is inconclusive, the potency comes from a doubtful curve fit.
# Assay: qHTS Assay for Inhibitors of Hepatitis C Virus (HCV)
# Conditions: Huh7.5.1 HCVcc-Cre (HCVcc is cell-culture hepatitis C virus) infection, luciferase reporter, 44 h; series mostly up to 41.8 µM
# How it was run: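 Whole-lifecycle infectious HCVcc-Cre system; cells 1,000/well, compound then virus (~0.5 moi) added 4 h after plating, 44 h culture. Luciferase read 15 sec following 15 min substrate incubation, room temp.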
# Potency means the concentration at half of the fitted maximal effect; tags describe the fitted curve by direction and shape.
row,Structure (SMILES),Potency
1,CCc1nc(SCC(=O)c2ccc3c(c2)OCCO3)c2ccccc2n1,active: 8.91 µM
2,CCCN1Cc2cccc(C(=O)Nc3ccc(C)cc3)c2C1=O,"inconclusive: 7.08 µM [inhibitor, partial curve]"
3,COc1ccc(CCNc2cc(C)nc3c(-c4ccccc4)cnn23)cc1OC,"inconclusive: 0.501 µM [inhibitor, full curve, poor fit]"
4,Cc1ccc(Nc2cc(C)nc3c(C)cccc23)cc1,"inconclusive: 12.6 µM [inhibitor, partial curve]"
5,CCN(CC)CCN1C(=O)C(=O)/C(=C(/O)c2ccc(S(=O)(=O)N3CCOCC3)cc2)C1c1ccc(Cl)cc1 (stereo not given),inactive
6,CCn1c(SCC(=O)OC)nc2cc(S(=O)(=O)N3CCOCC3)ccc21,inactive
7,COc1ccc(/C=C/C(=O)Nc2cccc(S(=O)(=O)N3CCCC3)c2)cc1OC,active: 10 µM
8,N#Cc1ccc(OCC(=O)N2CCN(c3ccc(C(F)(F)F)cn3)CC2)cc1,inactive
9,O=C(CN1C(=O)NC(c2ccccc2)(c2ccccc2)C1=O)N1CCN(c2ccc(F)cc2)CC1,"inconclusive: 14.1 µM [inhibitor, partial curve]"
10,CCCCC(=O)NC(c1ccc(N(C)C)cc1)c1ccc2cccnc2c1O (stereo not given),active: 3.98 µM
11,CC(C)C(OC(=O)c1nsc(Cl)c1Cl)C(=O)NC1CCCCC1 (stereo not given),inactive
12,COc1ccc(S(=O)(=O)N(C)C[C@H]2Oc3ccc(NC(=O)C4CCCCC4)cc3C(=O)N([C@H](C)CO)C[C@@H]2C)cc1,"inconclusive: 11.2 µM [inhibitor, partial curve]"
13,Cc1ccc(CN2CCN(Cc3ccc4ncccc4c3)CC2CCO)cc1 (stereo not given),"inconclusive: 31.6 µM [inhibitor, single point]"
14,CN(C)c1ccc(/C=N/n2ncc3ccccc32)cc1,"inconclusive: 31.6 µM [inhibitor, single point]"
15,C/C=C/c1ccc(OCCOc2cccc3cccnc23)c(OC)c1,"inconclusive: 22.4 µM [inhibitor, single point]"
16,CCC(C)(C)n1nnnc1C(c1cccs1)N1CCN(c2nc3ccccc3s2)CC1 (stereo not given),active: 10 µM
17,O=C1CC2(CCCC2)CC(=O)N1CCCCN1CCN(c2ncccn2)CC1,"inconclusive: 31.6 µM [inhibitor, single point]"
18,CN1CCN(S(=O)(=O)c2ccc(Sc3nnc(-c4cccs4)n3-c3ccccc3)nc2)CC1,"inactive and inconclusive: 7.08 µM [inhibitor, partial curve]"
19,Cc1nc(-c2ccccc2O)n(S(=O)(=O)N(C)C)n1,"inconclusive: 10 µM [inhibitor, partial curve, poor fit]"
20,CCOC(=O)C1=CN(Cc2cccc(-c3cccnc3)c2)S(=O)(=O)N(CC)C1C (stereo not given),"inconclusive: 10 µM [inhibitor, partial curve]"
21,O=C(C1=C[C@@H](C2CCCCC2)C[C@@H](OCCCCO)O1)N1CCN(Cc2ccc3c(c2)OCO3)CC1,inactive
22,CN(C)c1ccc(CNn2cnnc2SCc2ccc(F)cc2)cc1,"inconclusive: 22.4 µM [inhibitor, partial curve]"
23,Cc1nc2cc(NCc3ccc(Cl)cc3)ccc2n1C,inactive
24,Cc1ccc2nc(NC(=O)C3CC3C)sc2c1 (stereo not given),"inconclusive: 20 µM [inhibitor, single point]"

row,Structure (SMILES),Potency
1,Cc1ccc(CN2CC(C(=O)N3CCN(c4ccccc4Cl)CC3)CC2=O)cc1 (stereo not given),"inconclusive: 3.16 µM [inhibitor, partial curve]"
2,Cc1cc(C)c(S(=O)(=O)c2cccc(C)c2C)c(=O)[nH]1,"inconclusive: 3.55 µM [inhibitor, single point]"
3,NC(=S)N/N=C1\CC(c2ccc3c(c2)OCCO3)Oc2ccc(F)cc21 (stereo not given),"inconclusive: 22.4 µM [inhibitor, single point]"
4,COc1ccc(C(=O)N=c2sc3c(C)ccc(OC)c3n2C)cc1OC,active: 15.8 µM
5,COc1ccc(NC(=O)COc2ccccc2Cl)cc1S(=O)(=O)N1CCCCC1,active: 10 µM
6,CCc1ccc(N2CC(C(=O)OCc3nc4ccsc4c(=O)[nH]3)CC2=O)cc1 (stereo not given),inactive
7,O=C(Nc1ccccc1N1CCOCC1)c1cccc2c(Br)cccc12,active: 5.62 µM
8,Nc1nc(CSc2nc3ccccc3s2)nc(Nc2ccccc2)n1,"inconclusive: 31.6 µM [inhibitor, single point]"
9,CSc1nc2ccc(S(=O)(=O)N3CCc4ccccc43)cc2s1,"inconclusive: 14.1 µM [inhibitor, partial curve]"
10,CCOC(=O)C1CCN(c2c(NCCC(C)C)c(=O)c2=O)CC1,inactive
11,Cc1noc(C(=O)Nc2cc(Cl)ccc2O)c1Cl,"inconclusive: 31.6 µM [inhibitor, single point]"
12,Cc1ccc(CN2C(=O)CCC2C(=O)NC2CC2)cc1 (stereo not given),"inconclusive: 3.55 µM [inhibitor, single point]"
13,O=C(Nc1ccc([N+](=O)[O-])cc1)c1ccccc1,inactive
14,Nc1nc(N2CCN(C(=O)c3ccco3)CC2)nc2ccccc12,inactive
15,Fc1ccc(OCc2cc(-c3ccccc3)no2)cc1,inactive
16,CCN(C(=O)CCc1nc(-c2ccccc2F)no1)c1cc(OC)ccc1OC,"inconclusive: 1.26 µM [inhibitor, full curve]"
17,Cc1cc([N+](=O)[O-])nn1CCCC(=O)Nc1sc2c(c1C(N)=O)CCCC2,"inconclusive: 7.08 µM [inhibitor, partial curve]"
18,COc1ccc(C(=O)Nc2nnc(C)s2)cc1S(=O)(=O)N1CCOCC1,"inconclusive: 3.16 µM [inhibitor, single point]"
19,Cc1cccc(C(=O)Nc2ccc(C(=O)/C=C/c3cccnc3)cc2)c1,"inconclusive: 31.6 µM [inhibitor, single point]"
20,CN1/C(=C\C(=O)Nc2ccc(Br)cc2)C(C)(C)c2ccccc21,inactive
21,Cc1ccc(-c2nnn(CC(=O)N3c4ccccc4CCc4ccccc43)n2)cc1,"inconclusive: 14.1 µM [inhibitor, single point]"
22,Cc1ccc(C)c(NC(=O)CN(C)C(=O)c2cc([N+](=O)[O-])ccc2N2CCOCC2)c1,"inconclusive: 31.6 µM [inhibitor, single point]"
23,CC1CCCN(c2nc(-c3cccnc3)nc3scc(-c4ccccc4)c23)C1 (stereo not given),"inconclusive: 22.4 µM [inhibitor, partial curve]"
24,O=C(CN(C1CC1)S(=O)(=O)c1ccc(S(=O)(=O)NC2CCCCC2)cc1)Nc1ccccc1,"inconclusive: 31.6 µM [inhibitor, single point]"

row,Structure (SMILES),Potency
1,Cc1ccc(SC2=C(Sc3ccc(C)cc3)C(=O)c3ccccc3C2=O)cc1,"inconclusive: 12.6 µM [inhibitor, single point]"
2,CCOC(=O)c1c(C)[nH]c(C(=O)NCCc2ccc(OC)c(OC)c2)c1C,"inconclusive: 11.2 µM [inhibitor, partial curve]"
3,O=C(Nc1ccccc1)OCCNC(=O)c1cccc(Cl)c1,"inconclusive: 22.4 µM [inhibitor, single point]"
4,CCN(CC)CC(=O)Nc1sc2c(c1C(=O)c1ccccc1OC)CCC2,"inconclusive: 31.6 µM [inhibitor, single point]"
5,C=CCn1c(-c2cccc([N+](=O)[O-])c2)n[nH]c1=S,inactive
6,O=C(Cn1cnc2ccccc2c1=O)Nc1ccc2c(c1)OCO2,inactive
7,Cc1cc(NC(=O)CN2CCOCC2)n(-c2ccccc2)n1,inactive
8,Cc1cc(CNC(=O)c2cccc([N+](=O)[O-])c2C)c2ccccc2n1,"inconclusive: 2 µM [inhibitor, full curve]"
9,CC(C)(NC(=O)c1ccccc1)c1nc2ccccc2s1,inactive
10,Cc1cc(C)c(/C=C2\C(=O)Nc3ccccc32)[nH]1,"inconclusive: 3.98 µM [inhibitor, partial curve]"
11,CCc1cc2cccc(C)c2nc1SCC(=O)N1CCN(C(=O)c2ccco2)CC1,"inconclusive: 4.47 µM [inhibitor, single point]"
12,Cc1ccccc1S(=O)(=O)Cc1ccc(C(=O)N2CCN(c3ccccc3F)CC2)o1,active: 10 µM
13,O=C(NCc1ccc2[nH]c3c(c2c1)CCCC3)c1ccc(S(=O)(=O)N2CCOCC2)cc1,"inconclusive: 12.6 µM [inhibitor, single point]"
14,COc1ccc(-n2nc(C(=O)NCC(=O)Nc3ccccn3)c3ccccc3c2=O)cc1Cl,"inconclusive: 2.82 µM [inhibitor, partial curve]"
15,CN(C)c1cc(NC(=O)CNC(C)(C)CC(C)(C)C)c2ccccc2n1,"inconclusive: 10 µM [inhibitor, partial curve]"
16,CC(C)(C)NC(=O)C1CCN(C(=O)c2ccc(-c3ccccc3)cc2)CC1,"inconclusive: 31.6 µM [inhibitor, single point]"
17,Cc1cc(C)n2nc(C(=O)Nc3cccc(S(=O)(=O)N(C)c4ccccc4)c3)nc2n1,"inconclusive: 20 µM [inhibitor, single point]"
18,CCCCN(C(=O)/C=C/c1ccc(OCC(C)C)c(OCC)c1)c1c(N)n(CCC)c(=O)[nH]c1=O,"inconclusive: 12.6 µM [inhibitor, partial curve]"
19,COCCn1c(SCC(=O)Nc2ccc(F)cc2)nc2c(oc3ccccc32)c1=O,inactive
20,COc1ccc(CN2CCN(CCCc3ccccc3)C(CCO)C2)c(O)c1 (stereo not given),"inconclusive: 11.2 µM [inhibitor, single point]"
21,O=C(Nc1ccc(-c2cn3ccsc3n2)cc1)C1CC1,inactive
22,COc1cc([N+](=O)[O-])ccc1N,inactive
